The results in this text go back to the antibiotic and cytotoxicity screens of Wong et al. (2023).

Molecules are shown by their SMILES. This is one part of the list.

The first assay relates to HepG2. The experiment in a line: cytotoxicity call (relative viability < 0.9). Particulars: 10 µM.
Turning to `C[C@H]1CN([C@@H](C)CO)C(=O)c2cccc(NC(=O)C3CC3)c2O[C@H]1CN(C)S(=O)(=O)c1ccccc1`, the cytotoxicity call was “inactive”.

Turning to `C[C@H](O)C#Cc1cnc2c(c1)C(=O)N([C@@H](C)CO)C[C@@H](C)[C@H](CN(C)C(=O)CN1CCOCC1)O2`, the cytotoxicity call is “inactive”.

For `O=C(C[C@H]1C[C@H]2c3cc(NS(=O)(=O)c4ccc(F)cc4)ccc3O[C@H]2[C@H](CO)O1)NCc1ccncc1`, the cytotoxicity call is “inactive”.

`C[C@@H]1CN([C@H](C)CO)C(=O)c2cccc(NS(=O)(=O)c3ccccc3)c2O[C@@H]1CN(C)Cc1ccc(Cl)c(Cl)c1`: the cytotoxicity call is “inactive”.

`COc1ccc(S(=O)(=O)Nc2ccc3c(c2)C(=O)N([C@H](C)CO)C[C@H](C)[C@H](CN(C)S(=O)(=O)c2ccc(C)cc2)O3)cc1`: the cytotoxicity call was “inactive”.

As to `O=C1CN(C(=O)c2ccccc2)C(=S)N1`, the cytotoxicity call was “inactive”.

Regarding `CN(C)CCCNC(=O)C[C@@H]1C=C[C@@H](NS(=O)(=O)c2ccccc2)[C@H](CO)O1`, the cytotoxicity call is “inactive”.

`C[C@@H]1CCCCO[C@@H](CN(C)Cc2ccncc2)[C@H](C)CN([C@H](C)CO)C(=O)c2cc(NC(=O)C3CCCCC3)ccc2O1`: the cytotoxicity call is “inactive”.

For the compound `Cc1noc(C)c1S(=O)(=O)N(C)C[C@H]1OCCCC[C@H](C)Oc2ccc(NC(=O)Nc3ccc(C(F)(F)F)cc3)cc2C(=O)N([C@@H](C)CO)C[C@@H]1C`, the cytotoxicity call is “active”.

In the case of `C[C@H](CO)N1C[C@H](C)[C@H](CN(C)C(=O)Cc2ccccc2)OCCCC[C@H](C)Oc2ccc(NC(=O)Nc3ccc(C(F)(F)F)cc3)cc2C1=O`, the cytotoxicity call is “inactive”.

As to `Cc1ccc(S(=O)(=O)Nc2ccc3c(c2)CC(=O)N([C@@H](C)CO)C[C@H](C)[C@H](CN(C)S(=O)(=O)c2cccs2)O3)cc1`, the cytotoxicity call was “inactive”.

`O/N=C/c1ccc2ccccc2c1`: the cytotoxicity call is “inactive”.

As to `[O-][n+]1onc2c1CCc1c-2nn(-c2ccccc2)[n+]1[O-]`, the cytotoxicity call was “inactive”.

With `C[C@@H]1CCCCO[C@H](CN(C)S(=O)(=O)c2ccccc2)[C@@H](C)CN([C@H](C)CO)C(=O)c2cc(NS(=O)(=O)c3cn(C)cn3)ccc2O1`, the cytotoxicity call was “inactive”.

For `COc1ccc(S(=O)(=O)N(C)C[C@@H]2Oc3ccc(NS(=O)(=O)c4cccs4)cc3C(=O)N([C@@H](C)CO)C[C@H]2C)cc1`, the cytotoxicity call is “inactive”.

Take `CCC(=O)OC1(C(=O)SCF)C(C)CC2C3CC(F)C4=CC(=O)C=CC4(C)C3(F)C(O)CC21C` (stereo unspecified): the cytotoxicity call is “inactive”.

Regarding `C[C@@H]1CCCCO[C@@H](CN(C)C(=O)c2ccccc2)[C@@H](C)CN([C@@H](C)CO)C(=O)c2cc(NC(=O)Nc3ccc(C(F)(F)F)cc3)ccc2O1`, the cytotoxicity call is “inactive”.

Take `C[C@H](CO)N1C[C@H](C)[C@H](CN(C)S(=O)(=O)c2ccc(F)cc2)Oc2ccc(NC(=O)CCN3CCOCC3)cc2CC1=O`: the cytotoxicity call is “inactive”.

`COc1ccc(S(=O)(=O)N(C)C[C@H]2Oc3c(NS(=O)(=O)c4c(C)noc4C)cccc3C(=O)N([C@@H](C)CO)C[C@H]2C)cc1`: the cytotoxicity call is “inactive”.

On to `O=C(C[C@H]1CC[C@H](NS(=O)(=O)c2ccccc2F)[C@@H](CO)O1)NCCCN1CCOCC1`, for which the cytotoxicity call was “inactive”.

Take `COc1cc(OC)c2c(c1)OC(c1ccccc1)CC2=O` (stereo unspecified): the cytotoxicity call is “inactive”.

In another assay the test system is S. aureus RN4220. In words: growth inhibition call (relative growth <= 0.2). Particulars: 50 µM.
For `COCC#Cc1cnc2c(c1)C(=O)N([C@@H](C)CO)C[C@H](C)[C@@H](CN(C)S(=O)(=O)c1ccccc1)O2`, the growth inhibition call is “inactive”.

For `COc1ccc(S(=O)(=O)Nc2ccc3c(c2)C(=O)N([C@@H](C)CO)C[C@H](C)[C@@H](CN(C)C(=O)c2ccccc2)OCCCC[C@@H](C)O3)cc1`, the growth inhibition call was “inactive”.

Regarding `COc1ccc(CNC(=O)N(C)C[C@H]2OCc3ccccc3-c3c(n(C)c4ccccc34)C(=O)N([C@@H](C)CO)C[C@@H]2C)cc1`, the growth inhibition call was “inactive”.

Regarding `C[C@H](CO)N1C[C@H](C)[C@@H](CN(C)C(=O)c2cnccn2)Oc2cc(C3=CCCC3)ccc2S1(=O)=O`, the growth inhibition call is “inactive”.

In the case of `C[C@@H]1CN([C@@H](C)CO)C(=O)c2cc(NC(=O)CCC(F)(F)F)ccc2O[C@@H](C)CCCCO[C@@H]1CN(C)S(=O)(=O)c1ccc(F)cc1`, the growth inhibition call is “inactive”.

Consider `C[C@H](CO)N1C[C@H](C)[C@@H](CN(C)Cc2ccc(Cl)c(Cl)c2)Oc2ccc(NC(=O)Nc3ccc4c(c3)OCO4)cc2C1=O`, for which the growth inhibition call is “inactive”.

With `CC1(C)C(=O)NCCN1C(=O)c1ccco1`, the growth inhibition call is “inactive”.

With `COCC(=O)N(C)C[C@H]1Oc2cc(C#CCC3CCCC3)ccc2S(=O)(=O)N([C@H](C)CO)C[C@@H]1C`, the growth inhibition call was “inactive”.

Turning to `C[C@@H]1CN([C@@H](C)CO)S(=O)(=O)c2ccc(-c3ccncc3)cc2O[C@H]1CN(C)S(=O)(=O)c1ccccc1F`, the growth inhibition call was “inactive”.

On to `O=C(C[C@H]1C[C@H]2c3cc(NS(=O)(=O)c4ccc(F)cc4)ccc3O[C@H]2[C@H](CO)O1)NCc1ccccc1F`, for which the growth inhibition call was “inactive”.

For the compound `C[C@@H]1CCCCO[C@@H](CN(C)S(=O)(=O)c2cn(C)cn2)[C@H](C)CN([C@H](C)CO)C(=O)c2cc(NC(=O)Nc3ccc(C(F)(F)F)cc3)ccc2O1`, the growth inhibition call was “inactive”.

For `O=C(NCc1ccc(F)cc1)[C@H]1[C@H](CO)[C@H]2Cn3c(cccc3=O)[C@@H]1N2C(=O)c1cnccn1`, the growth inhibition call was “inactive”.

On to `Nc1nc(=O)c2c([nH]1)CN(C(=O)[C@H]1CCOC1)CC2`, for which the growth inhibition call is “inactive”.

In the case of `COc1ccc(CN(C)C[C@@H]2OCCCC[C@H](C)Oc3ccc(NC(=O)Nc4ccc(OC)cc4)cc3C(=O)N([C@@H](C)CO)C[C@H]2C)cc1`, the growth inhibition call was “inactive”.

For the compound `C[C@@H]1CN([C@H](C)CO)C(=O)c2cccc(NC(=O)c3ccc(-c4nccs4)cc3)c2O[C@H]1CN(C)C(=O)Nc1ccc(C(F)(F)F)cc1`, the growth inhibition call is “inactive”.

Regarding `COc1ccccc1S(=O)(=O)N(C)C[C@@H]1Oc2cc(C#CCC(C)C)ccc2S(=O)(=O)N([C@H](C)CO)C[C@H]1C`, the growth inhibition call was “inactive”.

Turning to `COc1ccc(S(=O)(=O)Nc2ccc3c(c2)C(=O)N([C@H](C)CO)C[C@@H](C)[C@H](CN(C)Cc2ccc(C(=O)O)cc2)OCCCC[C@@H](C)O3)cc1`, the growth inhibition call is “inactive”.

For the compound `C[C@H]1C[C@@H]2[C@@H](C[C@@H]1C)N[C@@H]1C(=O)NC(=O)N[C@H]1N2C[C@H](O)[C@H](O)[C@H](O)CO`, the growth inhibition call is “inactive”.

In the case of `Cc1noc(C)c1NC(=O)N(C)C[C@@H]1Oc2cc(C#CCN(C)C)ccc2S(=O)(=O)N([C@H](C)CO)C[C@H]1C`, the growth inhibition call is “inactive”.

In the case of `C[C@H]1CN([C@@H](C)CO)C(=O)c2cccc(NC(=O)C3CC3)c2O[C@H]1CN(C)S(=O)(=O)c1ccccc1`, the growth inhibition call was “inactive”.

With `C[C@H](O)C#Cc1cnc2c(c1)C(=O)N([C@@H](C)CO)C[C@@H](C)[C@H](CN(C)C(=O)CN1CCOCC1)O2`, the growth inhibition call was “inactive”.

On to `O=C(C[C@H]1C[C@H]2c3cc(NS(=O)(=O)c4ccc(F)cc4)ccc3O[C@H]2[C@H](CO)O1)NCc1ccncc1`, for which the growth inhibition call was “inactive”.

Regarding `C[C@@H]1CN([C@H](C)CO)C(=O)c2cccc(NS(=O)(=O)c3ccccc3)c2O[C@@H]1CN(C)Cc1ccc(Cl)c(Cl)c1`, the growth inhibition call is “inactive”.

Take `COc1ccc(S(=O)(=O)Nc2ccc3c(c2)C(=O)N([C@H](C)CO)C[C@H](C)[C@H](CN(C)S(=O)(=O)c2ccc(C)cc2)O3)cc1`: the growth inhibition call was “inactive”.

`O=C1CN(C(=O)c2ccccc2)C(=S)N1`: the growth inhibition call was “inactive”.

Take `CN(C)CCCNC(=O)C[C@@H]1C=C[C@@H](NS(=O)(=O)c2ccccc2)[C@H](CO)O1`: the growth inhibition call was “inactive”.

Turning to `C[C@@H]1CCCCO[C@@H](CN(C)Cc2ccncc2)[C@H](C)CN([C@H](C)CO)C(=O)c2cc(NC(=O)C3CCCCC3)ccc2O1`, the growth inhibition call was “inactive”.

On to `Cc1noc(C)c1S(=O)(=O)N(C)C[C@H]1OCCCC[C@H](C)Oc2ccc(NC(=O)Nc3ccc(C(F)(F)F)cc3)cc2C(=O)N([C@@H](C)CO)C[C@@H]1C`, for which the growth inhibition call is “inactive”.

Regarding `C[C@H](CO)N1C[C@H](C)[C@H](CN(C)C(=O)Cc2ccccc2)OCCCC[C@H](C)Oc2ccc(NC(=O)Nc3ccc(C(F)(F)F)cc3)cc2C1=O`, the growth inhibition call was “inactive”.

With `Cc1ccc(S(=O)(=O)Nc2ccc3c(c2)CC(=O)N([C@@H](C)CO)C[C@H](C)[C@H](CN(C)S(=O)(=O)c2cccs2)O3)cc1`, the growth inhibition call was “inactive”.

In the case of `O/N=C/c1ccc2ccccc2c1`, the growth inhibition call is “inactive”.

Take `[O-][n+]1onc2c1CCc1c-2nn(-c2ccccc2)[n+]1[O-]`: the growth inhibition call is “inactive”.

Turning to `C[C@@H]1CCCCO[C@H](CN(C)S(=O)(=O)c2ccccc2)[C@@H](C)CN([C@H](C)CO)C(=O)c2cc(NS(=O)(=O)c3cn(C)cn3)ccc2O1`, the growth inhibition call is “inactive”.

On to `COc1ccc(S(=O)(=O)N(C)C[C@@H]2Oc3ccc(NS(=O)(=O)c4cccs4)cc3C(=O)N([C@@H](C)CO)C[C@H]2C)cc1`, for which the growth inhibition call was “inactive”.

Consider `CCC(=O)OC1(C(=O)SCF)C(C)CC2C3CC(F)C4=CC(=O)C=CC4(C)C3(F)C(O)CC21C` (stereo unspecified), for which the growth inhibition call was “inactive”.

`C[C@@H]1CCCCO[C@@H](CN(C)C(=O)c2ccccc2)[C@@H](C)CN([C@@H](C)CO)C(=O)c2cc(NC(=O)Nc3ccc(C(F)(F)F)cc3)ccc2O1`: the growth inhibition call was “inactive”.

In the case of `C[C@H](CO)N1C[C@H](C)[C@H](CN(C)S(=O)(=O)c2ccc(F)cc2)Oc2ccc(NC(=O)CCN3CCOCC3)cc2CC1=O`, the growth inhibition call is “inactive”.

For `COc1ccc(S(=O)(=O)N(C)C[C@H]2Oc3c(NS(=O)(=O)c4c(C)noc4C)cccc3C(=O)N([C@@H](C)CO)C[C@H]2C)cc1`, the growth inhibition call was “inactive”.

Turning to `O=C(C[C@H]1CC[C@H](NS(=O)(=O)c2ccccc2F)[C@@H](CO)O1)NCCCN1CCOCC1`, the growth inhibition call was “inactive”.

Turning to `COc1cc(OC)c2c(c1)OC(c1ccccc1)CC2=O` (stereo unspecified), the growth inhibition call is “inactive”.
